The results in this text go back to the supplement of paper PMC11417369.

± gives the standard deviation of the averaged measurements. The list shows a part of the results.

The test concerns PfAP2-G AP2 domain (GST-tagged). Nature of the test: gcPBM binding intensity (ln(normalized median fluorescence intensity)); higher = stronger DNA binding. The method in brief: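 Using an Agilent 4 × 180k array, primer-extended double-stranded 36-bp intergenic genomic probes and negative controls were exposed for 1 h to GST-fused P. falciparum DNA-binding domains expressed in E. coli. Binding was carried out in 1× PBS with 1% milk, 0.2 mg/ml BSA, 0.5% salmon testes DNA and 0.03% Triton X-100, and protein was detected with Alexa488 anti-GST antibody and a 488 nm scan. Binding intensity is the highest Masliner-normalised natural-log median intensity across replicate spots of either probe orientation.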
On to “TTGTATATATGACTTTTTTATATTTCAATTTTGTGC [CACACA_negctrl_site296]”, for which the “gcPBM binding intensity (ln)” value was 9.74 ± 0.19.
For the sequence “ACATCTAATTTGTATACACACAATAATAAATGGTGA [CACACA_site824]”, the “gcPBM binding intensity (ln)” value came out at 10.07 ± 0.099.
For the sequence “TTTACTTTCTTATTTTCACACATTTAAAAAAAAATT [CACACA_site5949]”, the “gcPBM binding intensity (ln)” value came to 10.1 ± 0.18.
The figure for “TATTAATTTTTAAACATAATTTTTCGTATAATATAT [CACACA_negctrl_site762]” is 9.81 ± 0.11.
The figure for “GAGATAAAATAAAACACACACATATATTTATATAAC [CACACA_site7098]” is 9.795 ± 0.021; for “GTATCGAAGTAAATACGTACTTAAATATGTTTAAAA [XGTACX_site1353]” it is 11.3 ± 0.77.
In the case of “ACGTACTGCCCTAAAGTGCATATATAATATAAACGA [GTGCAC_site9911]” it was 10.5 ± 0.43; in that of “TACACAAGAAAATTCACACACACACGGATATTTATA [CACACA_site7765]”, 9.88 ± 0.057; in that of “CTTTAAACCCTGAACACACACAAATACAGACAAAAA [CACACA_site247]”, 10.4 ± 0.38.
Consider “GTATTTTAATATAAATGTACATAAATGTTATATATA [XGTACX_site3475]”, for which the “gcPBM binding intensity (ln)” value worked out at 11.1 ± 0.73.
Consider “AATATTGTATATAATAAACACACAATATTAAAAATA [CACACA_site8262]”, for which the “gcPBM binding intensity (ln)” value was found to be 10.11 ± 0.021.
Turning to “ATAAGATATGTATATACACACATTTATTTACCTATA [CACACA_site7521]”, the “gcPBM binding intensity (ln)” value was 9.96 ± 0.14.
Consider “TTATTATTTTATAACACACACATATATATTATATCT [CACACA_site1434]”, for which the “gcPBM binding intensity (ln)” value is 9.895 ± 0.007.
On to “CATATATAAATCATGTGTACGTATTGAGTATCTACT [XGTACX_site6278]”, for which the “gcPBM binding intensity (ln)” value was 11.5 ± 0.97.
As to “AGGATATATAATTAAGTGCATTAATTCAAAATAAAA [GTGCAC_site9702]”, the “gcPBM binding intensity (ln)” value came to 10.05 ± 0.085.
Regarding ATATGACTTAAATATGTGCGCATTTTTTTTTTTTTT, the “gcPBM binding intensity (ln)” value came out at 10.5 ± 0.34.
For “TAAACAAAATATATATGTACATATATATATATATAT [XGTACX_site6502]”, the “gcPBM binding intensity (ln)” value amounted to 11.2 ± 0.81.
Consider “ATCTAGCCATTTTTTAGTACACATAAATAAAAAAAA [XGTACX_site1257]”, for which the “gcPBM binding intensity (ln)” value came out at 11.5 ± 1.1.
Consider “CATTAATAACAAAGTTGTACAAGATAATATTATATG [XGTACX_site6832]”, for which the “gcPBM binding intensity (ln)” value was found to be 11.3 ± 0.73.
Turning to “AAAACATTTTCAAACTGTACACATAGAACTATGCAT [XGTACX_site4087]”, the “gcPBM binding intensity (ln)” value amounted to 11.4 ± 0.82.
The figure for “ACATAAGAAGTTATATGTACATATATTTTTTAAATT [XGTACX_site8078]” is 11.2 ± 0.72.
On to “TTTTATTTGACAAGCACACACTTAAATATATTTATA [CACACA_site7557]”, for which the “gcPBM binding intensity (ln)” value is 10.3 ± 0.2.
As to “TATATTTTAGTTAATGCATGTGTGCATCCATTTAAA [TGCATGCA_site887]”, the “gcPBM binding intensity (ln)” value amounted to 9.89 ± 0.2.
In the case of “ATACATATATATATATGTACACACATTAATAAAAAA [XGTACX_site6874]”, the “gcPBM binding intensity (ln)” value worked out at 11.5 ± 0.93.
The figure for “TACCAAAATAGACACACACACAAAATATGTAAATAT [CACACA_site6963]” is 10.1 ± 0.18.
